Results on 68 molecules are retold here after PubChem BioAssay AID1240 (Sanford-Burnham Center for Chemical Genomics, 2008).

About 800 (1.6%) of roughly 50,000 compounds showed an effect of 50% or more. This is one part of the list.

The target of this test is Bcl-2-like protein 10 (Homo sapiens) (UniProt Q9HD36). Description: Phenotype converters, Bcl-B/TR3 peptide binding displacement, primary biochemical FP (AID 1240).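 Further: 0% = Bcl-B with tracer peptide and DMSO and 100% = tracer peptide lacking Bcl-B.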 The conditions noted are these: GST-Bcl-B / FITC-TR3 peptide fluorescence polarization; stronger effect = higher value; compound at 3.75 mg/L. In general terms: Fluorescence polarisation rises when a labelled molecule tumbles more slowly, as on binding a larger partner.
Sequence of UniProt Q9HD36 (Q9HD36 whole entry, looked up): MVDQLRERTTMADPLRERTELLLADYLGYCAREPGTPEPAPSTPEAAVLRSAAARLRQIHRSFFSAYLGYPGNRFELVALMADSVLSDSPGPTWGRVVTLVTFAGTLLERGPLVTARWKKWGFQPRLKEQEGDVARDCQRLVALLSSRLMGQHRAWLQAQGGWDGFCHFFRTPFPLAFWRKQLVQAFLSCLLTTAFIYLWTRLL
For `CC1(C)CC(=O)c2c(oc3ccc(NS(=O)(=O)c4cc(Cl)ccc4Cl)cc23)C1`, the displacement was found to be 0.3%.

In the case of `Cc1c(C(=O)Oc2c(Br)cc(Br)cc2Br)cccc1[N+](=O)[O-]`, the displacement was found to be 3.8%. In the case of `Cc1cc(NC(=O)C23CC4CC(CC(C4)C2)C3)no1` it was -3.4%; in that of `O=C1NN(c2ccccc2)C(=O)/C1=C\c1ccccc1O`, 37.7%; in that of `CCCCCOC(=O)COc1ccc(S(=O)(=O)c2ccc(OCC(=O)OCCCCC)cc2)cc1`, 3.8%. In the case of `NS(=O)(=O)c1ccc(NC(=O)/C(=C\c2ccc(Br)cc2)NC(=O)c2ccccc2Cl)cc1` it was 3.5%. The result for `CC1(C)CC(=O)C2=C(C1)Nc1sc(C#N)c(N)c1C2c1ccccc1` (stereo not drawn) reads -7.9%.

For `CC(=O)Nc1ccc(NC2=C(Cl)C(=O)c3c(Cl)c(Cl)c(Cl)c(Cl)c32)cc1`, the displacement came to 16.4%. For the molecule `C=CCc1ccccc1OCCOc1c(Br)cc(C=C2C(=O)NC(=S)NC2=O)cc1OC`, the displacement came out at 3.5%. For the molecule `COC(=O)c1c(-c2cc(C)ccc2C)csc1N`, the displacement was -6.2%. As to `CN(C)c1ccc(/C=C2/C=C(c3ccccc3)OC2=O)cc1`, the displacement is -7.2%.

Regarding `Cc1cc2nc3s/c(=C/c4ccc([N+](=O)[O-])cc4)c(=O)n3c2cc1C`, the displacement amounted to 0.7%.

On to `NS(=O)(=O)c1cccc(NC(=O)c2ccc(OCc3ccccc3)cc2)c1`, for which the displacement was -6.3%. In the case of `CCOC(=O)C1=C(c2ccccc2)N=c2s/c(=C\c3cccc(O)c3)c(=O)n2C1c1cccs1` (stereo not drawn) it was -10.5%; in that of `Cc1ccc(OCCSc2nc3ccccc3[nH]2)cc1C`, 3%; in that of `CCOc1ccc(C2Nc3ccccc3NC3=C2C(=O)CC(c2ccccc2)C3)cc1` (stereo not drawn), 5%. The result for `Cc1ccc(C2CC(C(F)(F)F)n3nc(C(=O)N(Cc4ccccc4)Cc4ccccc4)cc3N2)cc1` (stereo not drawn) reads 8.1%; that for `O=S(=O)(CC(O)COCc1ccc(Cl)cc1)c1ccccn1` (stereo not drawn), -4.8%; that for `COc1ccc(S(=O)(=O)CCc2nnc(-c3ccc(Br)cc3)o2)cc1`, 5%. Regarding `CCOC(=O)/C(=N\O)C1=NC(C)(C)C(C)c2ccccc21` (stereo not drawn), the displacement came to 11.4%.

Turning to `COc1cccc(/C=C2/C(=O)NC(=O)N(c3cc(C)cc(C)c3)C2=O)c1O`, the displacement turned out to be 10%.

For the molecule `Brc1cccc(CN2CCN(Cc3ccccn3)CC2)c1`, the displacement is -24%.

As to `C=CCN1C(=O)/C(=C\c2ccc(OCc3ccccc3)cc2)SC1=S`, the displacement was determined as 11.4%.

For `O=C(O)CCN1C(=O)/C(=C/c2cn(-c3ccccc3)nc2-c2cccc([N+](=O)[O-])c2)SC1=S`, the displacement was 11.7%. In the case of `COc1ccc(NC(=O)CN(c2cc(Cl)cc(Cl)c2)S(C)(=O)=O)cc1OC` it was 0.3%; in that of `CCCOC(=O)c1cccc(NC(=O)COc2cc(C)cc(C)c2)c1`, 16.6%. In the case of `COc1cccc(C2c3c(-c4ccccc4)n[nH]c3C(=O)N2c2ccccc2)c1` (stereo not drawn) it was 0.1%. In the case of `CCOC(=O)C1C(=O)C=C(C)C(C(=O)OCC)C1c1ccc(Br)cc1` (stereo not drawn), the displacement is -6.7%. As for `O=C1NC(=Nc2ccc(F)cc2)S/C1=C\c1ccco1`, the displacement is 32.8%. In the case of `Cn1c(=O)c2c3c(sc2n2c(SCc4ccccc4)nnc12)CCC3`, the displacement amounted to 11.7%.

Regarding `COc1cccc(-c2nnc(NC(=O)Nc3ccc(Cl)c(Cl)c3)s2)c1`, the displacement is 4.5%. Consider `COCCOC(=O)c1ccc(NC(=O)COc2ccc(-c3ccc(C)cc3)cc2)cc1`, for which the displacement was -1.9%. The result for `COc1cc(C(=O)N2CCN(C(=O)c3cccs3)CC2)cc(OC)c1OC` reads 9.4%. In the case of `CCCOc1ccc2c(oc(=O)c3ccccc32)c1C` it was 9.1%; in that of `CC1=C(C(=O)OC2CCCCC2)C(c2ccc(O)cc2)C2=C(CCCC2=O)N1` (stereo not drawn), -10.7%. In the case of `C=CCOc1ccccc1/C=N/NS(=O)(=O)c1ccc(Cl)cc1` it was -6.7%.

Consider `O=C1/C(=C\c2ccco2)SC(=S)N1C1CCCCC1`, for which the displacement was 22.4%. In the case of `Cc1ccc([N+](=O)[O-])c(OCC(=O)Oc2ccccc2)c1` it was -11.5%; in that of `CCN1C(=O)c2cccc3c(S(=O)(=O)N(C)c4ccccc4)ccc1c23`, -3.2%; in that of `CC1(C)Cc2ccccc2C(Nc2nc(-c3ccccc3)cs2)=N1`, 0.8%.

For `COc1ccccc1C1Nc2ccccc2NC2=C1C(=O)CC(c1ccccc1)C2` (stereo not drawn), the displacement was -4.4%. The result for `COc1cccc2cc(-c3nc(-c4cc5cc(Br)ccc5oc4=O)cs3)c(=O)oc12` reads -4.9%. In the case of `Cn1cnnc1SCC(=O)Nc1ccccc1` it was 0%; in that of `COc1ccc(C(=O)CN2CCN(CCN3C(=O)c4cccc5cccc(c45)C3=O)CC2)cc1`, 9.4%; in that of `O=c1/c(=C\c2ccc(OS(=O)(=O)c3cccc([N+](=O)[O-])c3)cc2)sc2nc3ccccc3n12`, -6.5%. Turning to `COc1ccc(C=O)c2c(O)cccc12`, the displacement is 14.6%. The result for `CN(C)c1ccc(-c2c3cc(O)c(=O)cc-3oc3cc(O)c(O)cc23)cc1` reads 24.9%; that for `O=C(O)CN1C(=O)/C(=C2\SC(=S)N(/N=C/c3cc([N+](=O)[O-])ccc3O)C2=O)c2ccccc21`, 32.1%; that for `O=C(NNC(=O)c1cccnc1)NC1CCCCC1`, -6%. As for `Cc1ccc(C(=O)CC(=O)c2ccc(Br)cc2)c(O)c1`, the displacement was -11.8%. The result for `O=C(CSc1ncc(-c2ccccc2)[nH]1)Nc1ccc(F)cc1` reads 5.5%; that for `Cc1cc(-c2ccccc2)nc2cc(C(=O)N3CCCc4ccccc43)nn12`, 14.2%; that for `CC(=O)NN(c1ccccc1)C1CC(C)N(c2ccccc2)N1C(C)=O` (stereo not drawn), 5%. In the case of `O=[N+]([O-])c1ccc(N(CC(O)CN2CCCCC2)S(=O)(=O)c2ccccc2)cc1` (stereo not drawn) it was -10%; in that of `O=C(Cc1cccc2ccccc12)NCCOc1ccccc1Cl`, -13.8%; in that of `CCNC(=O)C(=O)Nc1cc(Cl)ccc1C`, 14.3%. For the molecule `COc1ccc(Cl)cc1S(=O)(=O)n1cnc2ccccc21`, the displacement came out at 11.1%.

On to `Cc1ccc(C2=NN(C(=O)CCC(=O)O)C(c3ccccc3F)C2)cc1` (stereo not drawn), for which the displacement was determined as 6.1%. The result for `O=[N+]([O-])c1ccc(Cl)c(N2CCCC2)c1` reads 15.4%; that for `CCn1ccnc1C(O)c1ccc(N(C)C)cc1` (stereo not drawn), 15.2%. The result for `C/C(=N\NC(=O)CSc1nc2ccccc2n1Cc1ccccc1)c1ccco1` reads -9.6%; that for `O=C(c1c(F)cccc1F)N1CCN(c2cc(N3CCCCC3)c(F)cc2[N+](=O)[O-])CC1`, -2.7%; that for `COc1cc(/C=C2\Sc3ccccc3C2=O)ccc1OCC#N`, -0.9%. Consider `CCN(C(=O)c1ccccc1)c1ccccc1`, for which the displacement was determined as 10%. The result for `O=C(NCc1ccccn1)c1ccc(O)cc1` reads 8.5%. The result for `CCC(=O)Oc1ccc2c3c(c(=O)oc2c1C)CCC3` reads 13.7%; that for `O=C1c2ccc(Oc3ccc([N+](=O)[O-])cc3)cc2C(=O)N1CC1CCCO1` (stereo not drawn), 10.9%; that for `CC1=CC(C)(C)N(C(=O)NC2CCCCC2)c2ccc(C)cc21`, -2.3%.
